For the assay, the system named is NCI-H322M lung. Kind of assay: NCI tumour cell line growth inhibition, 48 h.

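Growth conditions: 96-well plates. Treatment: test compound, 48 hours, 5 concentrations. Analysis: linear interpolation between bracketing concentrations; unreached endpoints set to highest concentration. The concentration for 50% growth inhibition is given as GI50. TGI is the concentration that stops growth completely.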

The compound `O=C1/C(=C\c2cccs2)Oc2ccccc21` showed a TGI greater than 100 µM.

`COC(=O)c1c(O)ccc2c1c1c(n2C)C(=O)c2ccccc2C1=O` yielded a TGI greater than 100 µM.

`COc1cc(C2c3cc4c(cc3OC(N3CCOCC3)C2C)OCO4)cc(OC)c1O` (configuration not stated) yielded a TGI greater than 79.9 µM.

The compound `CN(C)Cc1cc(N=Nc2ccc(Cl)c(Cl)c2)ccc1O` yielded a TGI of 23.9 µM.

For `CCCN(CCCCC(NC(C)=O)C(=O)NCc1ccccc1)C(=O)NC` (configuration not stated), the TGI was greater than 100 µM.

On to `O=C(CCCC(=O)N1CC(CCl)c2ccc([N+](=O)[O-])cc21)N1CC(CCl)c2ccc([N+](=O)[O-])cc21` (configuration not stated), for which the TGI is greater than 100 µM.

`O=C1CC(c2cccc(Cl)c2)n2cccc21` (configuration not stated) had a TGI greater than 100 µM.

Turning to `COC(=O)c1ccc2c(c1)c1c(C)c3cnccc3c(C)c1n2C`, the GI50 was 0.267 µM and the TGI was 4.12 µM.

In the case of `COc1cc(C(C#N)NNC(=O)c2ccccc2O)ccc1O` (configuration not stated), the TGI was greater than 100 µM.

In the case of `CCC(=O)N1C/C(=C/c2ccc(OC)cc2)C(=O)/C(=C/c2ccc(OC)cc2)C1`, the GI50 is 2.91 µM and the TGI is 9.37 µM.

In turn, `Cn1c(N/N=C/c2ccc(Cl)cc2)nc(-c2ccc(Cl)cc2)c(C#N)c1=O` yielded a TGI of 53.4 µM.

The compound `c1cc(-c2sc(-c3ccncc3)c(-c3ccncc3)c2-c2ccncc2)ccn1` came in with a TGI of 39.6 µM.

Compound `CCCCCc1c(CCCC)c(=O)[nH]c2cc(CNCC(OC)OC)ccc12` gave a TGI of 27.2 µM.

Turning to `c1ccc2c(NCCCCCCCCNc3c4ccccc4nc4ccccc34)c3ccccc3nc2c1`, the TGI was determined as 2.01 µM.

In turn, `C=CCN(N=O)C(=O)N(CCC)CCCC(NC(C)=O)C(=O)NCc1ccccc1` (configuration not stated) came in with a TGI greater than 100 µM.

Compound `O=C(CSc1nc2ccc(I)cc2c(=O)n1Cc1ccccc1)Nc1ccc(Br)cc1` had a TGI greater than 100 µM.

Turning to `NC1CCC(c2cc3ccccc3s2)(N2CCCCC2)CC1` (configuration not stated), the TGI stood at 6.42 µM.

In turn, `CN(C)Cc1cc(C(=O)/C=C/c2ccc(/C=C/C(=O)c3cc(CN(C)C)c(O)c(CN(C)C)c3)cc2)cc(CN(C)C)c1O` gave a TGI greater than 100 µM.

Compound `CCN(CC)CCNc1ccc(N=Nc2ccc(S(N)(=O)=O)cc2)c2ccccc12` registered a TGI of 38.5 µM.

On to `CC1(C)CCOC(=O)C(Cl)CC1Cl` (configuration not stated), for which the TGI is greater than 100 µM.

(Values after PubChem BioAssay (NCI).)
